This passage reports cell count results from the supplement of paper PMC4604168 (melanoma cell lines).

The list shows a part of the results. Most values come without repeats; read them as rough.
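Note: cells treated in 1,536-well plates, then fixed and DAPI-stained, with nuclei counted from automated high-throughput microscope images.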

The first assay relates to WM3619. In words: cell count relative to DMSO control; melanoma cells; higher = more viable cells. The settings on record: library dose: standard library concentration; 72 h.
As for `NC1(c2ccc(-c3nc4ccn5c(=O)[nH]nc5c4cc3-c3ccccc3)cc2)CCC1` + Cc1cc(SCc2sc(-c3ccc(C(F)(F)F)c(F)c3)nc2C)ccc1OCC(=O)O [GW0742] (first compound 2 µM, partner dose 10 µM), the cell count worked out at 75.5%.
Still for that read-out and setting: the result for `Nc1cccc2c1CN(C1CCC(=O)NC1=O)C2=O` (stereo not given) [lenalidomide] + O=C(Oc1ccc([N+](=O)[O-])cc1)N1CCC(C(O)(c2ccc3c(c2)OCO3)c2ccc3c(c2)OCO3)CC1 [JZL184] (first compound 5 µM, partner dose 5 µM) reads 89.7%.
`CCN(CC)CCNC(=O)c1c(C)[nH]c(/C=C2\C(=O)Nc3ccc(F)cc32)c1C` [sunitinib] + Cc1cc(SCc2sc(-c3ccc(C(F)(F)F)c(F)c3)nc2C)ccc1OCC(=O)O [GW0742] (first compound 2 µM, partner dose 10 µM): the cell count worked out at 112%.
Still for that read-out and setting: the result for `Cc1cc(Nc2cc(N3CCN(C)CC3)nc(/C=C/c3ccccc3)n2)n[nH]1` + Cc1cc(SCc2sc(-c3ccc(C(F)(F)F)c(F)c3)nc2C)ccc1OCC(=O)O [GW0742] (first compound 0.2 µM, partner dose 10 µM) reads 69.5%; that for `OCc1c[nH]c2ccccc12` [Indole-3-carbinol] + Cc1cc(SCc2sc(-c3ccc(C(F)(F)F)c(F)c3)nc2C)ccc1OCC(=O)O [GW0742] (first compound 4 µM, partner dose 10 µM), 109%.
For `Cn1c(=O)n(-c2ccc(C(C)(C)C#N)cc2)c2c3cc(-c4cnc5ccccc5c4)ccc3ncc21` + C/C(O)=C(\C#N)C(=O)Nc1cc(Br)ccc1Br [LFM-A13] (first compound 0.02 µM, partner dose 10 µM), the cell count was 65%.
Regarding `CCCCCCCCc1ccc(CCC(N)(CO)CO)cc1` [fingolimod] + Cc1cc(SCc2sc(-c3ccc(C(F)(F)F)c(F)c3)nc2C)ccc1OCC(=O)O [GW0742] (first compound 10 µM, partner dose 10 µM), the cell count turned out to be 2.95%.

The test system of the next assay is WM451Lu. Described as above. The note with it: library dose: standard library concentration; 72 h.
Turning to `Cc1cc(N2CCOCC2)cc2[nH]c(-c3c(NC[C@@H](O)c4cccc(Cl)c4)cc[nH]c3=O)nc12` + C/C(O)=C(\C#N)C(=O)Nc1cc(Br)ccc1Br [LFM-A13] (first compound 1 µM, partner dose 10 µM), the cell count was determined as 79.2%.
Still for that read-out and setting: the result for `C=CCNC1=C2C[C@@H](C)C[C@H](OC)[C@H](O)[C@@H](C)/C=C(\C)[C@H](OC(N)=O)[C@@H](OC)/C=C\C=C(/C)C(=O)NC(=CC1=O)C2=O` [Tanespimycin] + C/C(O)=C(\C#N)C(=O)Nc1cc(Br)ccc1Br [LFM-A13] (first compound 0.01 µM, partner dose 10 µM) reads 81.6%; that for `Cn1nnc2c(C(N)=O)ncn2c1=O` [temozolomide] + C/C(O)=C(\C#N)C(=O)Nc1cc(Br)ccc1Br [LFM-A13] (first compound 10 µM, partner dose 10 µM), 90.7%.
Still for that read-out and setting: to `CCc1ccc(CCOc2ccc(CC3SC(=O)NC3=O)cc2)nc1` (stereo not given) [pioglitazone] + C/C(O)=C(\C#N)C(=O)Nc1cc(Br)ccc1Br [LFM-A13] (first compound 10 µM, partner dose 10 µM) belongs 90.4%.
Same read-out and setting: to `COC(=O)c1sccc1S(=O)(=O)Nc1ccc(Nc2ccccc2)cc1OC` + Cc1cc(SCc2sc(-c3ccc(C(F)(F)F)c(F)c3)nc2C)ccc1OCC(=O)O [GW0742] (first compound 5 µM, partner dose 10 µM) belongs 85.4%.
`COc1ccc(C2=N[C@@H](c3ccc(Cl)cc3)[C@@H](c3ccc(Cl)cc3)N2C(=O)N2CCNC(=O)C2)c(OC(C)C)c1` [Nutlin-3] + Cc1cc(SCc2sc(-c3ccc(C(F)(F)F)c(F)c3)nc2C)ccc1OCC(=O)O [GW0742] (first compound 0.5 µM, partner dose 10 µM) had a cell count of 100%.
Same read-out and setting: the result for `COc1cc(Nc2ncc(F)c(Nc3ccc4c(n3)NC(=O)C(C)(C)O4)n2)cc(OC)c1OC` [Tamatinib] + Cc1cc(SCc2sc(-c3ccc(C(F)(F)F)c(F)c3)nc2C)ccc1OCC(=O)O [GW0742] (first compound 2 µM, partner dose 10 µM) reads 81.5%; that for `CC(C)(C)c1cnc(CSc2cnc(NC(=O)C3CCNCC3)s2)o1` + O=C(Oc1ccc([N+](=O)[O-])cc1)N1CCC(C(O)(c2ccc3c(c2)OCO3)c2ccc3c(c2)OCO3)CC1 [JZL184] (first compound 0.05 µM, partner dose 5 µM), 47%.
